Values marked as one replicate rest on one cluster of the flow cell; about a third of the high ones do not repeat.
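Note: ATP exposure 15 min at 22 °C before imaging.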

The data set relates to ATP. Briefly: switch fluorescence ratio, 500 uM ATP over buffer (Cy3 cluster intensity, sum of 5 cycles each) (fold (ratio)); higher = stronger signal-on switching upon ATP binding; sequences stand for … in TCGTCGGCAGCGTCAGATGTGTATAAGAGACAGTTTTTTTTTTTTTTTTTTTTTTTTT…TC. The settings on record: aptamer strand: ATP DNA aptamer (quencher-CACCTGGGGGAGTATTGCGGAGGAAGG + anchor), 100 nM annealed; ATP concentration: 500 uM; one replicate. The essentials:
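Values give the fluorescence ratio for each switch-domain sequence, averaged from per-cluster ratios of summed target-cycle to summed buffer-cycle Cy3 intensity. The Cy3-labelled switching-strand clusters sat on a modified Illumina MiSeq flow-cell, were annealed to 100 nM quencher-labelled ATP aptamer, and were imaged in selection buffer, then after 15 min with 500 uM ATP at 22 °C. Five cycles ran with NaOH stripping and re-annealing between them, and clusters outside 100-1000 RFU were excluded.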
Consider CGCTACGGGA, for which the switch fluorescence ratio turned out to be 1.08.
In the case of ATCTCAAGCA, the switch fluorescence ratio came out at 1.11.
In the case of TTTGAGCCCT, the switch fluorescence ratio was found to be 0.996.
TAACCGGTTA: the switch fluorescence ratio was 0.975.
In the case of GCTAATTAGT, the switch fluorescence ratio came to 0.943.
Take GAGGCATACG: the switch fluorescence ratio was 1.81.
The value for ACAGCGTTTT was 1.02; that for CTGAGCGCAC was 2.08.
As for CTAGTACGAT, the switch fluorescence ratio is 1.02.
The value for TGGTGGGAGC was 0.962; that for TCACTATACG was 1.3.
AACCCGGCTC: the switch fluorescence ratio amounted to 1.06.
For the sequence CTACGTATAT, the switch fluorescence ratio was found to be 1.89.
As to TAGGCTCAGG, the switch fluorescence ratio is 1.01.
As to GATAACTCTC, the switch fluorescence ratio was determined as 1.08.
Turning to TGTTCCCTGG, the switch fluorescence ratio worked out at 1.05.
Take TAAGATTTG: the switch fluorescence ratio amounted to 0.976.
TCAGTGAGGT: the switch fluorescence ratio was determined as 0.997.
GACGGTCAAG: the switch fluorescence ratio was 1.01.
The figure for TGATCACGGG is 1.02.
The figure for GCCCGACAGA is 1.06; for ATAGCCTTCT it is 1.03; for GCGTCCCTTT it is 0.971.
Turning to GAATGCACGT, the switch fluorescence ratio stood at 0.983.
Take TAGGTATAG: the switch fluorescence ratio amounted to 0.984.
For GGAGGCGGCG, the switch fluorescence ratio came to 0.965.
The figure for AGTTGCATG is 0.943.
As for ACAGTTAGGA, the switch fluorescence ratio stood at 0.977.
The value for GCGACGCTCC was 2.24.
AAACCCCGCA: the switch fluorescence ratio came out at 4.34.
As for ACCGATTACA, the switch fluorescence ratio amounted to 1.03.
The figure for GAGTAGTGGA is 1.01; for TAGCTTGCGT it is 0.982; for CATTAGAAAA it is 0.999.
The value for GAGATCAAA was 0.971; that for TATCAAGGGG was 1.39; that for CTGCTAGGAT was 1.03.
Take TTTACGACCC: the switch fluorescence ratio was found to be 1.49.
Consider AGTGTTAGCG, for which the switch fluorescence ratio was 1.1.
Regarding GGCATAACGG, the switch fluorescence ratio was found to be 1.01.
As to ATCGCTAACA, the switch fluorescence ratio turned out to be 0.998.
Turning to GGGCAGTTAG, the switch fluorescence ratio came to 1.04.
With CTAGCGTTTG, the switch fluorescence ratio was 1.01.
As to CGTATTATCG, the switch fluorescence ratio was determined as 0.903.
In the case of ATGATCCCCC, the switch fluorescence ratio turned out to be 1.1.
On to CAACGAGTC, for which the switch fluorescence ratio was 1.25.
The value for GCATAGTATG was 1.02; that for TCAGGCCCTG was 0.992.
On to GCGCAACGTC, for which the switch fluorescence ratio stood at 1.14.
Turning to ATATTCACGC, the switch fluorescence ratio turned out to be 1.06.
Turning to TTACGAGGGC, the switch fluorescence ratio worked out at 1.04.
The value for CGGGGGCCCC was 0.946; that for CGAAAGTCTG was 1.03; that for AGTATTAGA was 1.05.
With TCTTAATACG, the switch fluorescence ratio was determined as 1.04.
With ACTAACGAGA, the switch fluorescence ratio is 1.24.
CAACCGTCGG: the switch fluorescence ratio was found to be 1.08.
The value for CACTTAGTTC was 1.04; that for CGAAGGCCTA was 1.
Regarding CGCCGGGCAC, the switch fluorescence ratio was 1.24.
As for TCATAATAAC, the switch fluorescence ratio came to 0.995.
GGCGGAAGAC: the switch fluorescence ratio came to 1.42.
For TCAGTGGTTC, the switch fluorescence ratio worked out at 1.01.
In the case of AGTGCATTAA, the switch fluorescence ratio came out at 1.02.
As for GGGAGTTACG, the switch fluorescence ratio is 1.01.
Consider GTGACAAAGG, for which the switch fluorescence ratio is 1.01.
On to ATCGCTGTAT, for which the switch fluorescence ratio is 1.02.
With GTCACATGAA, the switch fluorescence ratio worked out at 1.01.
Regarding ATGTTGTGTA, the switch fluorescence ratio was found to be 0.964.
The figure for GAGGCACTTA is 1.02; for GGTGAACGTA it is 1.02; for TTGTTGGT it is 0.968.
For ATCAAGGTGC, the switch fluorescence ratio was determined as 1.55.
Take GGACTAGAAC: the switch fluorescence ratio was 1.02.
For CGACGCTAGG, the switch fluorescence ratio came to 2.96.
Consider TGTGTAAGCA, for which the switch fluorescence ratio is 1.01.
CATGACCCCT: the switch fluorescence ratio was determined as 1.08.
Turning to AGCAAAGCTA, the switch fluorescence ratio was 0.949.

Source of the values: the supplement of paper PMC10126150.
